B1: CPEB3 Ribozyme (parent)
chain: UAACAGGGGGCCACAGCAGAAGCGUUCACGUCGCAGCCCCUGUCAGAUUCUGGUGAAUCUGCGAAUUCUGCUGUAUAUCUC

These results are taken from the RNAGym collection of RNA variant scans (doi:10.1093/nar/gkz1192).

Read counts are not given, so values of variants with three or more changes are uncertain.

In this series the parent is B1. Kind of series: self-cleavage, relative activity (ratio to wild type); higher = more cleavage; in vitro, sequencing. In short, it runs like this: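 Barcoded CPEB3 ribozyme mutants, produced by rounds of error-prone PCR, self-cleaved while being transcribed with T7 RNA polymerase for 5 hours at 37°C and during a subsequent 15 min DNase I step before EDTA was added. Sequencing of template-switched cDNA on Illumina gave cleaved and total reads, and DNA sequencing assigned barcodes to variants. Each variant's relative activity is its cleaved/total read fraction divided by the unmutated ribozyme's fraction, averaged across three batches. A variant needed a minimum of 5 reads.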
With A20G A28G A35U G42U U43A U58C, the self-cleavage was 0.05. On to A20G A57G A65G, for which the self-cleavage was 0.11. Regarding A20G U25C U31C C44G A56U U80A, the self-cleavage turned out to be 0.18. For A20G A64G U72C, the self-cleavage was determined as 0.59. With A20G A75G U76G, the self-cleavage came to 0.38. As for A20G U26C A57U C71A, the self-cleavage was found to be 0.16.

For A20G A64G U66C U69C A75U U78A, the self-cleavage is 0.09. Consider A20G C27U A77U, for which the self-cleavage amounted to 0.28.

Take A20G G33A A35G U72C U80C: the self-cleavage was determined as 0.1. Next, A20G G30A U66C: 0.11; A20G U25C A45G U60C: 0.15; A20G C37A U54C: 0.09. Next, A20G C29A A45G A57G: 0.26; A20G C29U G30U U51A U69A U78C: 0.15; A20G C32A A77G U80A: 0.08. Take A20G U25C U26C A47C A64G: the self-cleavage amounted to 0.13. Take A20G C23U C37U: the self-cleavage is 0.3. On to A20G A56G A65G, for which the self-cleavage amounted to 0.28. Next, A20G C39G U51A A64G: 0.15; A20G U25C U78A: 0.21; A20G U25C U78C: 0.09. For A20G C40A A45U, the self-cleavage was found to be 0.22. Regarding A20G C34U U41C A77G, the self-cleavage stood at 0.09. For A20G A45G A77G, the self-cleavage is 0.7.

Consider A20G U26C U43A U60C, for which the self-cleavage was 0.1. Turning to A20G U31C U48C A64G, the self-cleavage is 0.45. Turning to A20G C38A A45G U78C, the self-cleavage was found to be 0.09. Turning to A20G U25C U43C U76C, the self-cleavage turned out to be 0.35.

For the variant A20G U25A G33A U58C A77G, the self-cleavage was found to be 0.03. As for A20G A47U A57G U58C A64G U78C, the self-cleavage was found to be 0.05.

A20G C29U U54C A65G: the self-cleavage stood at 0.26.

For A20G A21G U31C, the self-cleavage came out at 0.26.

For A20G C27A A56G C59U U60A, the self-cleavage is 0.09.

For the variant A20G C34G A45U, the self-cleavage came out at 0.17. The result for A20G A64G U67C reads 0.73; that for A20G U25C U41A U74C, 0.46; that for A20G G30A U72C, 0.08. With A20G U25C U66C, the self-cleavage stood at 0.06. As for A20G A57G A77G, the self-cleavage is 0.8. The result for A20G G52A U54A G63A reads 0.78; that for A20G U25C U51A, 0.39. On to A20G U25C C32A U41A U49C U69A, for which the self-cleavage worked out at 0.11. For the variant A20G G33A U43C U49C, the self-cleavage turned out to be 0.09. For A20G G33A U48C A56U U58C G70A, the self-cleavage came to 0.03.

With A20G A64G U78A, the self-cleavage amounted to 0.88. Turning to A20G U26C U31C U48C U54A, the self-cleavage is 0.08.

Turning to A20G C71U U80C, the self-cleavage came out at 0.98.

In the case of A20G A47U U49A A57G, the self-cleavage stood at 0.21. Consider A20G U26C U41C A75G, for which the self-cleavage is 0.45. Consider A20G U25C A65U U67C, for which the self-cleavage amounted to 0.44. For the variant A20G A35U U54A G63U U78A, the self-cleavage was 0.39.

On to A20G A35G A56G U66C U78C U80C, for which the self-cleavage came out at 0.89. As to A20G A45G G61U, the self-cleavage is 0.38. In the case of A20G U26C C29U, the self-cleavage was 0.46. In the case of A20G U25C A56G A77G, the self-cleavage is 0.49. Take A20G A21G U58A C71G: the self-cleavage was 0.34. The result for A20G U25C U41C C44U U51A U54C reads 0.27; that for A20G U25C A45G U69C A77G, 0.05. Next, A20G U25A U26C U51A U58A U72A: 0.15; A20G A21G U69C: 0.26. Next, A20G C29U U43C U69C: 0.08; A20G A21G C29U A45G U49C U54C: 0.04. As for A20G A64G U80A, the self-cleavage was 0.44.

For the variant A20G C29U A45G U72A A77G U78A, the self-cleavage stood at 0.13. Next, A20G C32U A75G: 0.1; A20G A47U U58C: 0.42; A20G G30U U41G A47G U76C: 0.21. A20G A21U U43C: the self-cleavage worked out at 0.08.

With A20G U31C A45U U54A A56G A75U U80G, the self-cleavage stood at 0.02. For A20G A28G U54C A56G U58C U76C U78C, the self-cleavage is 0.28.

Regarding A20G A57G U76A, the self-cleavage stood at 0.92. Consider A20G A28U U43A A47U U60C A64U, for which the self-cleavage amounted to 0.12. Next, A20G C29U A47U G61A U74A A75G: 0.1; A20G A56U U66C G73A A77G: 0.28. For A20G A21G A75G, the self-cleavage came to 0.43.

Regarding A20G A35U A57U U72C, the self-cleavage is 0.14. Regarding A20G A28G A35G U72C A75G, the self-cleavage stood at 1.04.

Regarding A20G U26C G33C U51C U58G U72C, the self-cleavage is 0.12.

For the variant A20G U31A U58C U76C, the self-cleavage amounted to 0.1.

As to A20G A21G U26C U60G U69C, the self-cleavage was found to be 0.05.

As for A20G A21G U26C, the self-cleavage worked out at 0.41. Turning to A20G A21G U26A, the self-cleavage came to 0.47.

For A20G A47G U51C U72A, the self-cleavage was 0.34. The result for A20G U26A G33A A47G U51C reads 0.08; that for A20G U25C U41C U51A, 0.19. As to A20G C34U G42U U48C, the self-cleavage turned out to be 0.11.

As to A20G A45G G70C, the self-cleavage amounted to 0.15. As for A20G C62G G70U, the self-cleavage was found to be 0.35.

As for A20G C29U A35G U76A, the self-cleavage stood at 1.16. A20G U26C U41A U51C U69A U78C: the self-cleavage turned out to be 0.2.

Take A20G A21G U48C: the self-cleavage amounted to 0.28.

Regarding A20G U25C U41C U48C, the self-cleavage was determined as 0.25.

Regarding A20G A28U A35U U41A U76C, the self-cleavage is 0.1. A20G A28U U43C U54C U78C: the self-cleavage turned out to be 0.06.

A20G U26C U31C U60A A77G: the self-cleavage stood at 0.05. As for A20G A21U U48C U51A, the self-cleavage was 0.27. Next, A20G A28G U76C: 0.53. As for A20G G52A A57G, the self-cleavage turned out to be 0.63.

Turning to A20G G24C U31C A57U U78C, the self-cleavage was determined as 0.08.

Consider A20G A35G U43C C59A, for which the self-cleavage worked out at 0.41.

A20G C50A U54G: the self-cleavage was 0.25. Next, A20G C29U U41C: 0.21. In the case of A20G C34G U51A U58A U66C C68U, the self-cleavage stood at 0.09.

Turning to A20G A21G C39U C50A, the self-cleavage is 0.52. For the variant A20G A21G U26C A45U U80A, the self-cleavage was 0.06. For the variant A20G A21U C37U U54G U60A U80C, the self-cleavage is 0.18. A20G C40U U78C: the self-cleavage was 0.36. A20G U26G A45G U69A U78C: the self-cleavage turned out to be 0.04. On to A20G U31C C32U U41A U54C, for which the self-cleavage is 0.08. Take A20G A56G U72C U80C: the self-cleavage was determined as 0.6. Regarding A20G A28G U49A U80C, the self-cleavage stood at 0.15. For the variant A20G A35G C62U, the self-cleavage amounted to 0.29. With A20G A35U U49C, the self-cleavage came to 0.18. As to A20G A56G A65C U72A, the self-cleavage was found to be 0.14. As for A20G A21U U66A, the self-cleavage stood at 0.7. On to A20G U26A U31A U67C U78C, for which the self-cleavage was found to be 0.22. Consider A20G A28G A64U U66C A77G, for which the self-cleavage was determined as 0.23. The result for A20G A35G A75U U80A reads 1.31; that for A20G A21G G70A, 0.4; that for A20G A28G U49C G63A, 0.27. The result for A20G C62U U67A reads 0.21; that for A20G A65G U66C, 0.21. Regarding A20G U26C U67C, the self-cleavage was 0.29. For A20G A35U C38U U67C, the self-cleavage was determined as 0.19. For the variant A20G C38G U72C, the self-cleavage was found to be 0.18. On to A20G G24A U49C C62U U72A, for which the self-cleavage was determined as 0.08.

On to A20G G24C U41A U66C U67C, for which the self-cleavage worked out at 0.11. The result for A20G A28U G42A reads 0.22; that for A20G A28U A47G, 0.51; that for A20G C23U U31A U41A U80C, 0.3. As for A20G A28G C29U C37U U49C, the self-cleavage was 0.13. Next, A20G C27U U54A U60G U69C: 0.19; A20G A35G A45G U60A: 0.71. For A20G C34U U43C U58C, the self-cleavage turned out to be 0.14.

As for A20G C29U A56G, the self-cleavage amounted to 0.46. As for A20G G46U A47G U60C U67C, the self-cleavage was found to be 0.08. As for A20G U25A U41C A45G, the self-cleavage is 0.06. Take A20G C38U U66C: the self-cleavage was found to be 0.15. For A20G U26A U49C A56G, the self-cleavage is 0.53. As for A20G C39A U78C, the self-cleavage is 0.27. Next, A20G G30C C39U U41A C62U: 0.1; A20G C37A A56G C59U A65G U76A: 0.03; A20G U31C C32A U78C: 0.17. Take A20G A35G U69C: the self-cleavage is 1.25. Consider A20G G55A C62G, for which the self-cleavage came to 0.13. On to A20G A35G U48C, for which the self-cleavage came out at 0.85. For the variant A20G A35G G36U U60G A64G, the self-cleavage amounted to 0.09. With A20G A28U G30A U51C A77U, the self-cleavage came out at 0.16. With A20G G24C A35U C40U U43C, the self-cleavage is 0.09.

Take A20G U25C U26C U72C: the self-cleavage amounted to 0.35.

On to A20G A21G A64G, for which the self-cleavage stood at 0.42. Next, A20G U25C U54C A57G: 0.17. As for A20G G42A U76C, the self-cleavage is 0.29. Next, A20G A35G U43C U49C U80C: 0.43. On to A20G U25A U69A, for which the self-cleavage came out at 0.45. For the variant A20G C29A A47G G63A U72A, the self-cleavage amounted to 0.14. Next, A20G U25A C29G A47U A57G A65G U72C: 0.05; A20G A45G U58A U67C U72C: 0.14; A20G A28U U41C U66C U72C: 0.25. The result for A20G A47G U60C reads 0.19; that for A20G A35G G46A, 0.73; that for A20G U26G U49C A64G U69A, 0.14.

In the case of A20G A47G A64U C68U, the self-cleavage worked out at 0.15. For A20G U25C U48C U74C, the self-cleavage stood at 0.32. With A20G A35U A45U U51C, the self-cleavage turned out to be 0.19. As to A20G G42A A47G A57G, the self-cleavage stood at 0.08. Take A20G A21G C27A A35U U41C: the self-cleavage came to 0.17.
